# Measurements reported in PMC10726135.
# The list shows a part of the results. At the low end of the ranking the order means little. The protein was read in a cell extract, so binding may be indirect.
# Target: T1, HNF4alpha8 (COS-7 nuclear extract) (UniProt P41235-5)
# T1 sequence: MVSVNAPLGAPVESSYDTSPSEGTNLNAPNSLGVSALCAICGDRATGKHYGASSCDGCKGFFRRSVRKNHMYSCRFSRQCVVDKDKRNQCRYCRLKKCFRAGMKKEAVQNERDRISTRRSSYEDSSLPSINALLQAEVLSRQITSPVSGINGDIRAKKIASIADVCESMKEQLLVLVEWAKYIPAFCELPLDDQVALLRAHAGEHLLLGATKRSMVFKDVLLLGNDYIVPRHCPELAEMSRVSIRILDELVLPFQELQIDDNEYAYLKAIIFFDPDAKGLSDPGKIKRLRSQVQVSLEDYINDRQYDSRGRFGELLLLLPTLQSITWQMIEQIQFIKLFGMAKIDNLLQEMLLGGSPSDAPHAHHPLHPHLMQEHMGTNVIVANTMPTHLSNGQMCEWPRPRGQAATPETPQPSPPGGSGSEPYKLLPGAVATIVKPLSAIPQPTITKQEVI
# Assay: protein-binding microarray
# Details: COS-7 nuclear extract on double-stranded Agilent 4x180k PBM; binding buffer, salt, pH and temperature not given; high values mean tight binding; double strand, one strand shown; sequences stand for … in …GCCTAGGGAGATTAGAGTATCGGTCGA
row,Sequence,binding signal (log2 normalized intensity)
1,AAAAAGACGCGGTCTCAGTTAACGGGGACG,-1.34
2,GCTTGAGCGAGACAGCGGGTGTTTCTGGGA,0.72
3,TTCCCCAGCGACTGAGCTGAGGTTAGAATC,-0.214
4,CTGTTTTACTGGGGCCCATTGTATGAGGGT,1.38
5,CAGAGAGATACTGAACCTTGCACTATTGAC,3.97
6,CTGCAGTCAGGGGTTAGGCCTGGAACCTGT,1.32
7,GATCCAAAAGACCCAGGTGTGTTGCAACTT,1.36
8,ATCAAAGGTCAAAATATCTGATCGATATCC,3.58
9,GGCATATCTCTGTCCCTGATACCATTATCT,0.708
10,TGGGGGAGGTAGGTAAGGACCAGATCATTC,-1.29
11,ACAGTAGACTTTTTTTTTCTTAATTGCCCT,3.18
12,CTCTCAAAAATCTCACTCACCCTAAGCCCT,2.65
13,CCCACCCCCACGCCCCCCAGCGGAAGTCCA,6.82
14,TAATGTGCCCAAAAGGACACAGGGTCTGTT,-0.265
15,GTGGAAGGATCACCTGAGTCCAGAGGTCAA,5.66
16,TTCCTGTCACAAGAGATAAAGCTCTTTGTC,-0.389
17,AGTCAGTTGCATGCAACCTTTGTCCTCATT,6.53
18,GGGATCCAGGTGCAAAGTACTTCCGATCTC,1.3
19,AATTCATCTCTAAGCTACTGAAAATGACCT,3.88
20,TAAGATAAGGAGGTAGAGTCTAAGGCTAAA,-1.2
21,GCCTTGGGCAAGTTACTTAAGCCATCTGCT,-1.39
22,TCTCCTGCATTCCTGTCCACCCTGAAAGAG,0.378
23,AGCCAACCAGAGGCTGAAGTGAAGTTACAA,-1.25
24,TCTCCAGGGTCCTTGCCTTAAGAGCAGTCT,-0.906

row,Sequence,binding signal (log2 normalized intensity)
1,AGCCCAAGGCAAAGCAGATGTGCTAACACT,-1.28
2,CAGACACACAATATTATGTTTTGTTATCTG,1.2
3,GGTTGCCCTAGTGACTCTAGGAACCTTTCT,0.299
4,TGGTCAATATCCACACAAACCCAGTTTGCA,-1.31
5,GGATACCTAAGCCCCATGCTGATAAGGGCC,-1.29
6,TGGCATTTGAGACTAGCCACAATAGGCCCT,-1.18
7,AGAGAAAAATCTTCAAACAACCCTTCGCTA,-1.38
8,CCAATTCACAGAACTCCCTAAGTGGCCTCA,0.0537
9,TCTTGGAAACATTTTACTCACCCCTTGCTG,1.62
10,GAGGGTTCTCACTCCTCTATCAGTACAAAT,0.933
11,CCCCTCGGCCGCTCCCTCCCCTCCTCCCTT,5.12
12,CATTGCTGACCTTGCCTCTGTGCTCCCAGT,1.04
13,GAATTTTGTGCAATTACACAACTTCCTTCA,-1.38
14,TCTGTGTGGTAAAAGCACTGAACCCTGTTT,2.31
15,CCCAGAAGAATGGGCAGAAGTAGGATAAGG,-1.49
16,TGTTCTAATGAGGCCACTCCTGATAGCTAG,-1.22
17,ACAAACACAGAAGTGGACCTTCACCAGATA,2.46
18,GTGAGGGAGGAGACTTTGACCTCTGCTAGG,6.12
19,TTCTTGGTGGAAGTGGTGATTTCGTTGAAA,1.23
20,TTGTGGAGGATGGGAAGTCCAAAGTCTGCA,4.82
21,TCAGATGAACTTTGCCTTAGGCCATTGTCC,3.98
22,GGGGGCCAGTTCACTCAGTCCACATGGTGT,0.389
23,AGATATCAGAAATGCATGAGTGACCTTTAT,5.66
24,CATTCCCCAGGCAATCTTCCAGTCCACAGT,1.24

row,Sequence,binding signal (log2 normalized intensity)
1,AATTGGGGGAGAGTTTAAGGTTGTACTTTG,3.69
2,AGATGGAATGTTGTGTCTTCCAGTTCATTT,1.64
3,CTACAGTCCTGCCACATCCCCCACACCGAG,4.27
4,GGGAAGGCAGGTCTCTCTCATTCACACCCT,-1.29
5,GTTAAAGTTGCCTGATGACAACTGAATGTG,-0.261
6,TTGCAGACCTTGGTCAAAGTGACACATTCC,0.772
7,GTCATCAGATAGATGGTCAGTGAACTGTGG,1.96
8,TCTTGGACTCTTGGACTCCCTGAAGAAACA,4.67
9,AAGGGCTGAGGTTAAAGTCCACATTCTTTA,6.82
10,TGGAATGCTTTTCTAGAACCAGGAATCCTA,-1.25
11,CTTGCTGCATTCCCCCACCTACTGTCTCCT,3.25
12,CAAGTTATCTCGGGGTGGCATGTATCTGAT,1.21
13,GTAACCTCAAAGGAGGTCAGAACTGTGGAC,1.78
14,CTTCTTGGATGCCCTTCCCTAACCCTTCAA,2.61
15,GGCCTCTCCTTCATCTTCAAAGCCAGCAAT,-1.26
16,TTTATCCAGTTCTGTGTACAAAGCCCCATA,3.39
17,TGGTTTTTCTGGGACCAAGGGTCAGTTCAT,4.47
18,AAATGTAATCAGCAAGTTTTATATGAAAAC,0.415
19,GGACTCCAAGCCCCAAAAACTTGGACTCTA,5.81
20,TTCAAGAAGACCTTTGCTCCACGTTCATAT,4.16
21,CCCCACTTCCTGACTTGGCCTGAACCAGTT,0.602
22,TACCCAACTCATCAGTATTTGATGGTACAA,1.31
23,TATTGGATTCCCCAATGCAGTACTATGCAA,0.782
24,CTTAAAGGCCTGTGTCGATGTTAACGCTAA,-1.15

row,Sequence,binding signal (log2 normalized intensity)
1,CAGGTGGGAGGGGTGGACTTTGGCTTTTCC,6.31
2,GAGCCTGGGGTTCAGCCACACCAAGTCTGG,-1.19
3,TCCCGGGGAGTCCTGGGCGTTGCTCTCCCA,-1.39
4,GGGAGGAGGAGACAAAGGCCGCGCCCGCCC,-1.3
5,TTCCCTTATCTTCTCCCCTGCCAAATCATG,2.53
6,TGGTCAAAGGTCACCAGTGAGCCAAGGTAC,5.3
7,AAACTTCATGGCTTAAAACGACTGATTCTC,-0.496
8,TCCAGATCAAGGATTTTTTCTTGGACTTTG,5.67
9,ATCTTTGCCCTTGAAGATACAGTTATGAAA,1.17
10,GTGCAAAGGCCTTAAAGTGTAAATATTTGA,0.546
11,AAGCAGTCTACACTAGGAGGAGGTCAAAGT,4.84
12,CAGAGCATTGTTTATTGTTGCTGATATAGA,1
13,GAAGGACAAAGATCATAAATGCCTCCCCCT,4.89
14,CAAAACTTTAGGACTTTGAACCTTGGGTCT,7.83
15,CTTTACTTATCCAAAGCTGCTGGGAGGTAG,-0.0834
16,CCTGGTCAAAGTCAACTCCTCCAAGCCACC,0.614
17,ATAAAAGATTGCATCTGTTTTTATTTCCCC,1.82
18,AAACTTATCTTGTGACCTTTGACTCATTAT,7.16
19,TCAGGCTGTGGTACGGAATCCAGGCCAACT,-1.12
20,GAACCGTCGTAATGGCTAAGGGCATCTACT,-1.2
21,ATCCAAAGTTCATGGAAAGTTTCACTTTCT,1.67
